From the supplement of paper PMC11417369
Some of the results follow.

tested on: PfHDP1 homeodomain (GST-tagged); experiment: gcPBM binding intensity (ln(normalized median fluorescence intensity)); higher = stronger DNA binding
Outline: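 Each value is the highest Masliner-normalised natural-log median intensity across replicate spots of either orientation of a probe. The probes were primer-extended double-stranded 36-bp intergenic genomic sequences on an Agilent 4 × 180k array, alongside negative controls, exposed for 1 h to GST-tagged P. falciparum DNA-binding domains expressed in E. coli. Bound protein was picked up with Alexa488 anti-GST antibody and scanned at 488 nm.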

First: TATTTGTGAAGAAATTGTACTCATATCTACATTTAT [XGTACX_site2245]
Second: AGTACATTATAGAATACACACCTATACATTTATATA [CACACA_site6391]
The “gcPBM binding intensity (ln)” value of the first is lower: 6.09 for the first, 6.46 for the second.

First: ATTTTATTTTTTCACACACACATATATATATATATA [CACACA_site3334]
Second: CCCAGGAATATAAAATGTACATAAAAAATACAAATT [XGTACX_site1708]
The “gcPBM binding intensity (ln)” value of the first is higher: 9.41 for the first, 6.88 for the second.

Compared with “TTTTTTTTTTTTGGATGTACTTAATGAAAATGTTAC [XGTACX_site8980]”, “TAAGCACAAGCACAAGCACACATTTATATATATATA [CACACA_site883]” is higher in “gcPBM binding intensity (ln)” value: 6.38 for the first, 8.94 for the second.

Compared with “TTATCATTTTTGGAATGTACTTACATTAAATATTTA [XGTACX_site4034]”, “TATATGCAAAATGTCACACATGTGATAAATACATAT [CACACA_site4302]” is higher in “gcPBM binding intensity (ln)” value: 6.37 for the first, 7.53 for the second.

First: GTTGAAATAAAATTAGTGCATATATAAATATATATA
Second: CTCACAATACTTACATGTACATATTATATATATAAA [XGTACX_site1880]
The “gcPBM binding intensity (ln)” value of the first is higher: 8.28 for the first, 7.23 for the second.

Going from “AACTAATAGTATATTACATGCAAAAGTAAAAGTAAA [TGCATGCA_site411]” to “TCATTCTTGTGTTTATGTACACATATTTATATTGTA [XGTACX_site710]”, the “gcPBM binding intensity (ln)” value falls from 7.08 to 6.45.

Going from “ACTGAAAAAAGAAATACACACATTCTGGATCAGATA [CACACA_site7760]” to “ATTATTATGTATTGCCGTACACATATTATCACAGAA [XGTACX_site3740]”, the “gcPBM binding intensity (ln)” value rises from 6.39 to 6.73.

First: TATAAATAAACATTTACACACTCTTATAATAAATAT [CACACA_site1679]
Second: TATTATAATTAATATACACACGCTTATATATATATA [CACACA_site75]
The “gcPBM binding intensity (ln)” value of the first is lower: 6.48 for the first, 8.89 for the second.

Compared with “TCTTCATATATAATTGTACACACAAAAACGACATTG [CACACA_site8645]”, “ACATGTACAGAAATTTATATATATATATATATATAT [CACACA_negctrl_site1584]” is higher in “gcPBM binding intensity (ln)” value: 6.96 for the first, 9.5 for the second.

First: GGAACCATCCAAAAAAAAAAAAAAAATAATAATAAT [CACACA_negctrl_site383]
Second: GTATTTTTTTTCTTTTGTACATATATATAAAGAATA [XGTACX_site4569]
The “gcPBM binding intensity (ln)” value of the first is lower: 6.17 for the first, 6.98 for the second.

Compared with “TATTATATATATAAATGTACATATTATTTTTCTTTT [XGTACX_site8670]”, “AAGAATTTTCGATTTGCACACATTTGTAAAATAAAA [CACACA_site2354]” is higher in “gcPBM binding intensity (ln)” value: 6.63 for the first, 9.98 for the second.

First: TTTAATCAACAAAATCTACACACTAATATGAAATAT [CACACA_site9250]
Second: ATACACGTTTTACAATGTACAGAAAGTATACATAAT [XGTACX_site4585]
The “gcPBM binding intensity (ln)” value of the first is lower: 6.4 for the first, 6.44 for the second.

Compared with “TATAATATGTTTGATGGTACACGTAAACACCTTGCA [XGTACX_site1643]”, “ATATACTTATATATTGCACACATCTAATATTTTGAA [CACACA_site3165]” is higher in “gcPBM binding intensity (ln)” value: 6.33 for the first, 10.5 for the second.

Going from “ATAACTAAATTATATTGTACAAAATAATTATATATT [XGTACX_site1188]” to “TTTTAAAATAAAAAAATAAAAAAAGGGGAAAAAAAA [CACACA_negctrl_site847]”, the “gcPBM binding intensity (ln)” value falls from 6.46 to 5.91.

First: CATATCAAAAAAAAATGTACACGTATATACAATACA [XGTACX_site2660]
Second: GTATTATAAAAAGGAAGTACATATATACATATTATA [XGTACX_site1271]
The “gcPBM binding intensity (ln)” value of the first is higher: 6.34 for the first, 6.31 for the second.

Compared with “ATATGAACATTAAAAAAGTAAGGTATTCTCCCCTCT [CACACA_negctrl_site1299]”, “TTTATTCTAAAATATTAAAAATGATTTGTTTTTTCA [CACACA_negctrl_site1751]” is lower in “gcPBM binding intensity (ln)” value: 6.41 for the first, 5.85 for the second.

Compared with “TTATAAAAAAAAAAAAAAAAAAAAACCAATATAATA [CACACA_negctrl_site968]”, “AGACAATTTTTTAGTACACACATATAGATATATAAA [CACACA_site6832]” is higher in “gcPBM binding intensity (ln)” value: 6.03 for the first, 6.62 for the second.

First: ATAATTATACAAAAGCGTACACGATATAAATCTACG [XGTACX_site8115]
Second: CTTAAATCCATAATATGTACTTAAAAAGAAAAAATA [XGTACX_site4765]
The “gcPBM binding intensity (ln)” value of the first is higher: 6.31 for the first, 6.09 for the second.

First: TAATACTTAATGAACACATGCACATATACATAGTAT [TGCATGCA_site496]
Second: TGTTTCTAAGAATTTACACACAAAATATTTCTACAT [CACACA_site7846]
The “gcPBM binding intensity (ln)” value of the first is higher: 8.25 for the first, 6.43 for the second.

Going from “AAAAAAAAAAATTGCACACAAAAAAAAAAAAAAAAA [CACACA_site2073]” to “TTAAAAATTAAAAGTAGTACATATAATATAAACATT [XGTACX_site424]”, the “gcPBM binding intensity (ln)” value falls from 9.92 to 6.11.

Going from “TAATATTACATTTATTGTACTTTGTTTTTATTTTAT [XGTACX_site1605]” to “TTTTTTTTTTTTTTTTGTACATATATATAAAAAATA [XGTACX_site2772]”, the “gcPBM binding intensity (ln)” value rises from 6.27 to 6.53.

Going from “AATTATACTCACGTTACACACACACTAGATATATAT [CACACA_site6133]” to “ATTGAAAAAATACAATGTACATAGTAATACAAAGAA [XGTACX_site4142]”, the “gcPBM binding intensity (ln)” value falls from 7.6 to 7.17.

Compared with “CCCACAATGGTTTATATACACACTGTTGCAAATTCT [CACACA_site3066]”, “TATTGATAAAAAATATGTACATATATACATATATAT [XGTACX_site3821]” is lower in “gcPBM binding intensity (ln)” value: 9.76 for the first, 6.47 for the second.

First: ATATATATATATATATGTACGTAAACAAAAATTTAT [XGTACX_site6780]
Second: GTAATTAAGATATATACACACAAAGGCTATTAAATA [CACACA_site6604]
The “gcPBM binding intensity (ln)” value of the first is higher: 9.43 for the first, 6.38 for the second.

Going from “TATATAACTACAAGAACACACATATAAATATAAATA [CACACA_site7210]” to “ATGTATCGTAACAAATGTACAAGAGGATGTTTAGAC [XGTACX_site3355]”, the “gcPBM binding intensity (ln)” value rises from 6.67 to 7.26.

Compared with “GTATTTATATGATTAACACACATATGTGGATTAATA [CACACA_site1315]”, “GATATATTTTGTTATGTAGATGTTGGTAGGAATTTT [GTGCAC_negctrl_site485]” is higher in “gcPBM binding intensity (ln)” value: 6.48 for the first, 6.56 for the second.

Compared with “TCATAAAAAGGAATCTTTAAGATATTTTATAAGCTC [XGTACX_negctrl_site18]”, “TTATAAATTTTTAATAGTACATAAAATTAAAGGTAA [XGTACX_site760]” is higher in “gcPBM binding intensity (ln)” value: 6.12 for the first, 6.39 for the second.

Going from “ATGTGATAATTTAGGAGTACTGTCATAAGCATTTCT [XGTACX_site3091]” to “AGTGCATAATATTTATGTACGTATCACATATATTTT [XGTACX_site5166]”, the “gcPBM binding intensity (ln)” value rises from 6.28 to 10.7.

Compared with “AATAAATGTCTGTTAATGCACACGATATGTCTATAT [CACACA_site2351]”, “TTTCTTTATTTATAATAATTTTTTATTAAAAATAGA [CACACA_negctrl_site1610]” is lower in “gcPBM binding intensity (ln)” value: 9.89 for the first, 5.95 for the second.

Going from “AAAAATAAAATAAAATAAAATAAAAATAAAGAAAAA [CACACA_negctrl_site808]” to “AGTAGTCTGGAGAAAAGTACACAGTATCTGGTAACA [XGTACX_site2034]”, the “gcPBM binding intensity (ln)” value falls from 6.47 to 6.

First: ACAAATAAAAAAATTACACACATATATAATATATAT [CACACA_site1361]
Second: ATTTGACACGTATATGCACACACCCGTAAGTGTCCA [CACACA_site8891]
The “gcPBM binding intensity (ln)” value of the first is lower: 6.6 for the first, 10.3 for the second.

First: TATTAACTCAATAGCGCACACTTTTAATATTTTATA [CACACA_site4973]
Second: AAATATATATATATTACACACTATATATTTATTTAT [CACACA_site681]
The “gcPBM binding intensity (ln)” value of the first is higher: 7.56 for the first, 6.49 for the second.

Compared with “TTCATTAAAACGAATACACACATAAATATATAAAAG [CACACA_site4824]”, “TATTATTTATATGATACACACGTACATATACACATA [CACACA_site9275]” is lower in “gcPBM binding intensity (ln)” value: 6.62 for the first, 6.57 for the second.

First: TGTATACCTTAATATACACACATACATATATATATA [CACACA_site8370]
Second: GGATATATTATATGTACACACATATATAACGGATAT [CACACA_site1309]
The “gcPBM binding intensity (ln)” value of the first is higher: 9.01 for the first, 6.74 for the second.

Going from “CAACAAAAGAAACACACACACACAAACACAAAAAAA [CACACA_site3389]” to “ATATATAAATATAGCATACACACAAAAAAATAAAAT [CACACA_site2332]”, the “gcPBM binding intensity (ln)” value rises from 6.85 to 7.04.

First: ATATACATATTTTTGACACACATTAGGAAAATATAT [CACACA_site4123]
Second: ATGTAATAAATACTACGTACATATATATGTGTTAAT [XGTACX_site3265]
The “gcPBM binding intensity (ln)” value of the first is lower: 6.48 for the first, 6.51 for the second.

First: TCTTTGGTATTTACATGTACATATTCTTAAAAACAT [XGTACX_site3124]
Second: TGTATAGTCTAAAGTTGTACAAAAAAAAAAAAAAAA [XGTACX_site5764]
The “gcPBM binding intensity (ln)” value of the first is higher: 6.98 for the first, 6.44 for the second.

Going from GAAAATAAAATATTAGTGCATTATTTGATCAATAAT to “TATTACTTAAATAAAAGTACATATAACATTTTAGTT [XGTACX_site196]”, the “gcPBM binding intensity (ln)” value falls from 9.5 to 6.05.

Compared with “AATAGTTGCTAAAGGTGTACAATACATTTATTAGAA [XGTACX_site2773]”, “TATATATATAATATATGTACTCATATTAAGAGATAC [XGTACX_site1354]” is higher in “gcPBM binding intensity (ln)” value: 6.66 for the first, 7.4 for the second.

First: AAAAAAAAAAAAAACACACACACACGCATACACATA [CACACA_site7364]
Second: ATAAATAAAACAAATAGTACAATATAAAAAAAAAGG [XGTACX_site87]
The “gcPBM binding intensity (ln)” value of the first is higher: 6.87 for the first, 6.74 for the second.

Compared with “TATACAGATATATATACACACATATATATAAATACA [CACACA_site4383]”, “AAGAGGATACACAATGTGCACTTTTTTTTTTTTTTT [GTGCAC_site9415]” is higher in “gcPBM binding intensity (ln)” value: 6.46 for the first, 8.35 for the second.

Going from “TATATATGTATATTTTGTACGTATTTATTTACATGA [XGTACX_site4584]” to “AATGAGCTTTTTAAAAGTACTAAATATAAATAAATA [XGTACX_site3632]”, the “gcPBM binding intensity (ln)” value rises from 6.09 to 6.29.

Compared with “TATATTTATACTTATACACACATTATTGAATTAACC [CACACA_site934]”, “TATAGGTATTTGTATACACACAAATGTATATATCTA [CACACA_site6713]” is lower in “gcPBM binding intensity (ln)” value: 6.87 for the first, 6.21 for the second.

First: AGTGTAAGCTAAGTGGTGCGTTGAATAAGGTTTTTT [GTGCAC_site9951]
Second: AAAAAATATGCATATACACACATATGTATAAATAAC [CACACA_site7090]
The “gcPBM binding intensity (ln)” value of the first is lower: 7.09 for the first, 7.4 for the second.

In the case of “CTTTATATATTTTATTGTACTTAAAAAAAAAAAAAA [XGTACX_site2134]”, the “gcPBM binding intensity (ln)” value is reported as 6.46.
